Experimental data taken from patent publication US20090054323A1 (published 2009).

Tests used:
human Ang-2 [1] = biological target: T1, human Ang-2 (human, UniProt O15123 19-496, limits assumed); test: BIAcore, peptibody captured on Protein G
T1 construct: Sources differ by assay: R&D Systems 623-AN (mixture of 2 truncated versions) for initial screening; also called hAng-2; huAng-2
T1 sequence (looked up): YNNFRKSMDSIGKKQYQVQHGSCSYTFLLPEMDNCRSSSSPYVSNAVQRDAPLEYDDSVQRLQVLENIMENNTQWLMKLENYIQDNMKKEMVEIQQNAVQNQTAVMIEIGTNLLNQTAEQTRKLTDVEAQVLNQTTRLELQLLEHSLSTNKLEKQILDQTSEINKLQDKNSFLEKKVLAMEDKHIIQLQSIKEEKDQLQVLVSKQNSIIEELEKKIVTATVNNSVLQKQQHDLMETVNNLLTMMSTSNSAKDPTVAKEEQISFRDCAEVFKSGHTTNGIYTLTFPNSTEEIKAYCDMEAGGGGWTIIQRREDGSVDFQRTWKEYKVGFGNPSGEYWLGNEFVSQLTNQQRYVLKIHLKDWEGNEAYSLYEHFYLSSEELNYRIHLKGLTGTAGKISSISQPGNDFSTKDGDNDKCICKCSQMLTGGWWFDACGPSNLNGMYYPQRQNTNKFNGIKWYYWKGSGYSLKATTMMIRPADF

cyno Ang-2 = biological target: T2, cyno Ang-2 (cyno, UniProt A0A2K5VNX6 19-496); test: neutralization ELISA vs Tie-2-Fc
T2 construct: also called cAng-2
T2 sequence: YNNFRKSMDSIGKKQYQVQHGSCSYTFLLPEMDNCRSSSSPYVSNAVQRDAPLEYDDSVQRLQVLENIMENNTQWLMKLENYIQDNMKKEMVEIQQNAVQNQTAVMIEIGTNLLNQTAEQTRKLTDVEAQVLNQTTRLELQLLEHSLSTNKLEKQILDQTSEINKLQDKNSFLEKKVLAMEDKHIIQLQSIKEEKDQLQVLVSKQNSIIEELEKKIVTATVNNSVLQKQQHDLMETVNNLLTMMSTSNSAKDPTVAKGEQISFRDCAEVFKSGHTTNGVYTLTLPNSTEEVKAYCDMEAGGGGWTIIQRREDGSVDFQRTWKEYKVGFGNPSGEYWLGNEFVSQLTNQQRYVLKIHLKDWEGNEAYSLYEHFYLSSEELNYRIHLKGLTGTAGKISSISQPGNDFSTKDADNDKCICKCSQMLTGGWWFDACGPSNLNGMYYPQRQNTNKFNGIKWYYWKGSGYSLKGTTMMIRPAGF
Protocol: (§1) Plates were incubated at room temperature for about 1 hour, after which they were washed five times with PBS containing about 0.1 percent Tween-20. […] Absorbance was then read in a spectrophotomer at 370 nm.

murine Ang-2 [2] = biological target: T3, murine Ang-2 (murine, UniProt O35608 19-496, limits assumed); test: neutralization ELISA vs Tie-2-Fc
T3 construct: also called mAng-2; mouse Ang-2
T3 sequence (looked up): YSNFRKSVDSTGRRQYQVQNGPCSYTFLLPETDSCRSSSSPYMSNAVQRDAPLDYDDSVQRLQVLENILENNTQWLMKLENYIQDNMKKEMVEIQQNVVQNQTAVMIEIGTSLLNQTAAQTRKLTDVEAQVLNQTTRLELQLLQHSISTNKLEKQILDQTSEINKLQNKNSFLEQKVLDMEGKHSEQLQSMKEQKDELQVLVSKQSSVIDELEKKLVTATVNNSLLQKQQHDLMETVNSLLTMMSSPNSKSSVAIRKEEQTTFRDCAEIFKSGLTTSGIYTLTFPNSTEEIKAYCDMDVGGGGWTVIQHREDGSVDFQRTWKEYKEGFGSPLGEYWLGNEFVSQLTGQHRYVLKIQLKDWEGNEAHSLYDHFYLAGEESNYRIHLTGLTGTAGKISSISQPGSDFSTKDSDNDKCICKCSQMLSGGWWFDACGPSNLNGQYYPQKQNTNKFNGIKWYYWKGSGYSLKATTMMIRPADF
Protocol: as §1

human Ang-1 = biological target: T4, human Ang-1 (human, UniProt Q15389 16-498, limits assumed); test: neutralization ELISA vs Tie-2-Fc
T4 construct: also called hAng-1
T4 sequence (looked up): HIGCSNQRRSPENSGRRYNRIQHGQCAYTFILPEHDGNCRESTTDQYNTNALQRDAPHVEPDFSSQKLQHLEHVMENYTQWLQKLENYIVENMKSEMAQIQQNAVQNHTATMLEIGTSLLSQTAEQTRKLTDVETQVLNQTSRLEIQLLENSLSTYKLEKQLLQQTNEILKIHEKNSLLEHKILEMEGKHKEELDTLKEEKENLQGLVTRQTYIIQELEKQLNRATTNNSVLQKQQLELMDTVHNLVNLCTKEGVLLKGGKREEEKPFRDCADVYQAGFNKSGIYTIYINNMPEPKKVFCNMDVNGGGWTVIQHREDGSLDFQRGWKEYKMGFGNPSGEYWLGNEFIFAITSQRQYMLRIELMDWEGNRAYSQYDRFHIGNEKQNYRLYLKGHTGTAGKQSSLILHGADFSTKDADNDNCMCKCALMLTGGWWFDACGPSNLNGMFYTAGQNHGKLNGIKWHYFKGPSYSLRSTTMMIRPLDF
Protocol: as §1

human Ang-2 [3] = biological target: T1, human Ang-2; test: neutralization ELISA vs Tie-2-Fc
Protocol: as §1

murine Ang-2 [4] = biological target: T3, murine Ang-2; test: neutralization ELISA vs Tie-2-Fc; remark: listed apart in the source
Protocol: (§2) Microtiter plates to which human Ang-2 polypeptide was bound were prepared as described for the Affinity ELISA. […] Next, about 100 microliters per well of goat anti-mouse-IgG-HRP (Pierce Chemical CO., catalog #31432) was added at a dilution of 1:10,000 in PBS containing about 1 percent BSA. Plates were incubated at room temperature for about 1 hour, after which they were washed five times with PBS containing about 0.1 percent Tween-20. About 100 microliters per well of TMB substrate (described above) was then added and color was allowed to develop. Absorbance was then read in a spectrophotomer at 370 nm.

human Ang-2 [5] = biological target: T1, human Ang-2; test: neutralization ELISA vs Tie-2-Fc; remark: listed apart in the source
Protocol: as §2

Kd (human Ang-2 [1]): 0.34 nM
koff (human Ang-2 [1]): 0.00016 s⁻¹
kon (human Ang-2 [1]): 480000 M⁻¹ s⁻¹
IC50 (cyno Ang-2): 0.047 nM
IC50 (murine Ang-2 [2]): 0.035 nM
IC50 (human Ang-1): 3 nM
IC50 (human Ang-2 [3]): 0.026 nM
IC50 (murine Ang-2 [4]): 0.02 nM
IC50 (human Ang-2 [5]): 0.04 nM
B1: 2xCon4 (C) 1K (Fc fusion)
chain: [human IgG1 Fc not written out]GGGGGAQQEECEWDPWTCEHMGSGSATGGSGSTASSGSGSATHQEECEWDPWTCEHMLE
notes: also called Pb5714

Like-named read-outs stand apart in the source and are kept apart here.
